# Measurements published in article PMC9911399, “Two distinct binding modes provide the RNA-binding protein RbFox with extraordinary sequence specificity”.
# Numbering of substitutions follows the chain as printed; changes in the protein carry UniProt numbers. The list shows a part of the results.
# T1: RBFOX1 RRM (Homo sapiens, UniProt Q9NWB1 109-208)
# T1 sequence: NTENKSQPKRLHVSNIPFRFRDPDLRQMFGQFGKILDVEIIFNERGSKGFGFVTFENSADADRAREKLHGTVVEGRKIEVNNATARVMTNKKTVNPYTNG
# B1: UCCUAAA (DNA:RNA)
# RNA: GGGAGACCGGAAUUCAGAUUGUCCUCCUAAAUUAAAUCCCGUCGUAGCCACCA
# DNA 1: CAATCTGAATTCCGGTCTCCC
# DNA 2: TGGTGGCTACGACGGGATT
# B2: UGCGAUU (DNA:RNA)
# RNA: B1 RNA with C26G, U28G, A30U, A31U
# DNA 1: CAATCTGAATTCCGGTCTCCC
# DNA 2: TGGTGGCTACGACGGGATT
# B3: GGCGGCA (DNA:RNA)
# RNA: B1 RNA with U25G, C26G, U28G, A29G, A30C
# DNA 1: CAATCTGAATTCCGGTCTCCC
# DNA 2: TGGTGGCTACGACGGGATT
# B4: GUAAAGA (DNA:RNA)
# RNA: B1 RNA with U25G, C26U, C27A, U28A, A30G
# DNA 1: CAATCTGAATTCCGGTCTCCC
# DNA 2: TGGTGGCTACGACGGGATT
# B5: GGGGGUU (DNA:RNA)
# RNA: GGGAGACCGGAAUUCAGAUUGUCCGGGGGUUUUAAAUCCCGUCGUAGCCACCA
# DNA 1: CAATCTGAATTCCGGTCTCCC
# DNA 2: TGGTGGCTACGACGGGATT
# B6: GGGGCUC (DNA:RNA)
# RNA: B5 RNA with G29C, U31C
# DNA 1: CAATCTGAATTCCGGTCTCCC
# DNA 2: TGGTGGCTACGACGGGATT
# B7: UUAUACU (DNA:RNA)
# RNA: B1 RNA with C26U, C27A, A30C, A31U
# DNA 1: CAATCTGAATTCCGGTCTCCC
# DNA 2: TGGTGGCTACGACGGGATT
# B8: UUCUUCA (DNA:RNA)
# RNA: B1 RNA with C26U, A29U, A30C
# DNA 1: CAATCTGAATTCCGGTCTCCC
# DNA 2: TGGTGGCTACGACGGGATT
# B9: ACAUUGG (DNA:RNA)
# RNA: B1 RNA with U25A, C27A, A29U, A30G, A31G
# DNA 1: CAATCTGAATTCCGGTCTCCC
# DNA 2: TGGTGGCTACGACGGGATT
# B10: GGACUCG (DNA:RNA)
# RNA: B5 RNA with G27A, G28C, G29U, U30C, U31G
# DNA 1: CAATCTGAATTCCGGTCTCCC
# DNA 2: TGGTGGCTACGACGGGATT
# B11: GGACGGA (DNA:RNA)
# RNA: B5 RNA with G27A, G28C, U30G, U31A
# DNA 1: CAATCTGAATTCCGGTCTCCC
# DNA 2: TGGTGGCTACGACGGGATT
# B12: CAAAGCC (DNA:RNA)
# RNA: B5 RNA with G25C, G26A, G27A, G28A, U30C, U31C
# DNA 1: CAATCTGAATTCCGGTCTCCC
# DNA 2: TGGTGGCTACGACGGGATT
# B13: UAUUUGU (DNA:RNA)
# RNA: B1 RNA with C26A, C27U, A29U, A30G, A31U
# DNA 1: CAATCTGAATTCCGGTCTCCC
# DNA 2: TGGTGGCTACGACGGGATT
# B14: AUGAUCG (DNA:RNA)
# RNA: B5 RNA with G25A, G26U, G28A, G29U, U30C, U31G
# DNA 1: CAATCTGAATTCCGGTCTCCC
# DNA 2: TGGTGGCTACGACGGGATT
# B15: CACCCUG (DNA:RNA)
# RNA: B5 RNA with G25C, G26A, G27C, G28C, G29C, U31G
# DNA 1: CAATCTGAATTCCGGTCTCCC
# DNA 2: TGGTGGCTACGACGGGATT
# B16: GCAGCGU (DNA:RNA)
# RNA: B5 RNA with G26C, G27A, G29C, U30G
# DNA 1: CAATCTGAATTCCGGTCTCCC
# DNA 2: TGGTGGCTACGACGGGATT
# B17: UGAUACA (DNA:RNA)
# RNA: B1 RNA with C26G, C27A, A30C
# DNA 1: CAATCTGAATTCCGGTCTCCC
# DNA 2: TGGTGGCTACGACGGGATT
# B18: UCCGGAU (DNA:RNA)
# RNA: B1 RNA with U28G, A29G, A31U
# DNA 1: CAATCTGAATTCCGGTCTCCC
# DNA 2: TGGTGGCTACGACGGGATT
# B19: UGAGUUC (DNA:RNA)
# RNA: B5 RNA with G25U, G27A, G29U, U31C
# DNA 1: CAATCTGAATTCCGGTCTCCC
# DNA 2: TGGTGGCTACGACGGGATT
# B20: CAUAUCC (DNA:RNA)
# RNA: GGGAGACCGGAAUUCAGAUUGUCCCAUAUCCUUAAAUCCCGUCGUAGCCACCA
# DNA 1: CAATCTGAATTCCGGTCTCCC
# DNA 2: TGGTGGCTACGACGGGATT
# B21: GCGCUAU (DNA:RNA)
# RNA: B5 RNA with G26C, G28C, G29U, U30A
# DNA 1: CAATCTGAATTCCGGTCTCCC
# DNA 2: TGGTGGCTACGACGGGATT
# B22: ACUACAC (DNA:RNA)
# RNA: B20 RNA with C25A, A26C, U29C, C30A
# DNA 1: CAATCTGAATTCCGGTCTCCC
# DNA 2: TGGTGGCTACGACGGGATT
# B23: CAGGCGG (DNA:RNA)
# RNA: B20 RNA with U27G, A28G, U29C, C30G, C31G
# DNA 1: CAATCTGAATTCCGGTCTCCC
# DNA 2: TGGTGGCTACGACGGGATT
# B24: CACCUCG (DNA:RNA)
# RNA: B20 RNA with U27C, A28C, C31G
# DNA 1: CAATCTGAATTCCGGTCTCCC
# DNA 2: TGGTGGCTACGACGGGATT
# B25: UCCCAUU (DNA:RNA)
# RNA: B1 RNA with U28C, A30U, A31U
# DNA 1: CAATCTGAATTCCGGTCTCCC
# DNA 2: TGGTGGCTACGACGGGATT
# B26: GCACGAU (DNA:RNA)
# RNA: B5 RNA with G26C, G27A, G28C, U30A
# DNA 1: CAATCTGAATTCCGGTCTCCC
# DNA 2: TGGTGGCTACGACGGGATT
# B27: GGGAGUC (DNA:RNA)
# RNA: B5 RNA with G28A, U31C
# DNA 1: CAATCTGAATTCCGGTCTCCC
# DNA 2: TGGTGGCTACGACGGGATT
# B28: CUGCGCA (DNA:RNA)
# RNA: B20 RNA with A26U, U27G, A28C, U29G, C31A
# DNA 1: CAATCTGAATTCCGGTCTCCC
# DNA 2: TGGTGGCTACGACGGGATT
# B29: CACAGCG (DNA:RNA)
# RNA: B20 RNA with U27C, U29G, C31G
# DNA 1: CAATCTGAATTCCGGTCTCCC
# DNA 2: TGGTGGCTACGACGGGATT
# B30: CUAGAAC (DNA:RNA)
# RNA: B20 RNA with A26U, U27A, A28G, U29A, C30A
# DNA 1: CAATCTGAATTCCGGTCTCCC
# DNA 2: TGGTGGCTACGACGGGATT
# B31: UACCGCC (DNA:RNA)
# RNA: B20 RNA with C25U, U27C, A28C, U29G
# DNA 1: CAATCTGAATTCCGGTCTCCC
# DNA 2: TGGTGGCTACGACGGGATT
# Target: T1, RBFOX1 RRM
# Assay: EMSA; HiTS-Eq, 1 nM pool, 10 min; buffer printed only for the single-RNA assays: 10 mM Tris pH 7.5, 150 mM NaCl, 3.4 mM EDTA, 0.001% NP-40, 30 C
# Conditions: tags: His6 N-terminal (pET28a); label: 5' 32P
# Outline: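 A pool of RNA with 7 randomized nucleotides, 5′-radiolabelled and with DNA-annealed flanks, was equilibrated at 1 nM for 10 min in 50 µL with purified RbFox RRM, wild type or mutant, across increasing protein concentrations. Free RNA was separated by 8% native PAGE, excised, reverse-transcribed, barcoded by PCR and sequenced. Relative association constants were obtained from read-count changes of each RNA species versus the control reaction and normalised to the cognate motif.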
row,Binder,binding signal
1,B1,0.00271 KA relative to UGCAUGU
2,B2,0.0215 KA relative to UGCAUGU
3,B3,0.0254 KA relative to UGCAUGU
4,B4,0.0108 KA relative to UGCAUGU
5,B5,0.0471 KA relative to UGCAUGU
6,B6,0.0466 KA relative to UGCAUGU
7,B7,0.00401 KA relative to UGCAUGU
8,B8,0.00614 KA relative to UGCAUGU
9,B9,0.009 KA relative to UGCAUGU
10,B10,0.0209 KA relative to UGCAUGU
11,B11,0.0127 KA relative to UGCAUGU
12,B12,0.00372 KA relative to UGCAUGU
13,B13,0.0237 KA relative to UGCAUGU
14,B14,0.0158 KA relative to UGCAUGU
15,B15,0.00418 KA relative to UGCAUGU
16,B16,0.0111 KA relative to UGCAUGU

row,Binder,binding signal
1,B17,0.013 KA relative to UGCAUGU
2,B18,0.00448 KA relative to UGCAUGU
3,B19,0.019 KA relative to UGCAUGU
4,B20,0.000538 KA relative to UGCAUGU
5,B21,0.00887 KA relative to UGCAUGU
6,B22,0.000277 KA relative to UGCAUGU
7,B23,0.00865 KA relative to UGCAUGU
8,B24,0.00142 KA relative to UGCAUGU
9,B25,0.00102 KA relative to UGCAUGU
10,B26,0.0227 KA relative to UGCAUGU
11,B27,0.0339 KA relative to UGCAUGU
12,B28,0.0174 KA relative to UGCAUGU
13,B29,0.00316 KA relative to UGCAUGU
14,B30,0.00635 KA relative to UGCAUGU
15,B31,0.00921 KA relative to UGCAUGU
